The other results are listed elsewhere or left out.
Each sequence was assayed on PF3D7_0420300 AP2 domain 1 (GST-tagged) (assay: gcPBM binding intensity (ln(normalized median fluorescence intensity)); higher = stronger DNA binding).
Procedure, shortened: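 DNA-binding domains from P. falciparum, fused to GST and produced in E. coli, were put on an Agilent 4 × 180k double-stranded probe array for 1 h in 1× PBS holding 1% milk, 0.2 mg/ml BSA, 0.5% salmon testes DNA and 0.03% Triton X-100. Probes were primer-extended, 36 bp long and drawn from intergenic genomic regions, with negative controls included. After Alexa488 anti-GST antibody detection and a 488 nm scan, binding intensity was set as the highest Masliner-normalised natural-log median intensity across replicate spots of either probe orientation.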

Point of comparison: “TTTATATATATTTATACACACAAACATAATACTACT [CACACA_site5161]”, “gcPBM binding intensity (ln)” value 9.55. Against it:
- GTTGGTAGGATGTATGGTACACGTAGTATTTTTCTT [XGTACX_site2] — higher, 9.59
- AATAAAAATAAAATTGTATATTTTAAATGAAAATAA [CACACA_negctrl_site898] — lower, 9.16
- CAAATTGGGAAATTTTGTACATATAATAAGGATACC [XGTACX_site7728] — lower, 9.28
- GATAATGAATGATGCACACTAAAAATATTCTACAAC [CACACA_site3622] — higher, 9.61
- CCGTATATTTTATATAGTACTCATCATATATTTTTA [XGTACX_site5560] — lower, 9.23
- ACATATGAAAAATATGCATGCAAATATTATTTAACA [TGCATGCA_site802] — lower, 9.25
- TATGTATGTTAGTGTGCACACATAAATATTATATAT [CACACA_site9121] — higher, 9.69
- TTTTTAAAATTTTTAAAAATATTATGTTAAATATAT [CACACA_negctrl_site415] — lower, 8.86
- ATATATATGTATTTATGTACATATTATTTTTCTTAA [XGTACX_site8169] — lower, 9.18
- AAAAAAAAAAAAATCTCACACATAAAGAGATTATGA [CACACA_site4408] — lower, 9
- TTGAAAGAAAATAAAATAAAATAAAATAAAATAAAA [CACACA_negctrl_site859] — lower, 8.88
- AATAAATAAAAATATATATATATAATATACATGTGT [TGCATGCA_negctrl_site369] — lower, 9.47
- GGATGTATTTATATGTGTATGTGTTTGGAAATATGT [XGTACX_negctrl_site99] — higher, 9.61
- AAAATTATATATTATAGTACATAAAATTTTGATATA [XGTACX_site994] — lower, 9.12
- TTAGTTATTATAATTTGTACACAAATGGTAAAGTAT [XGTACX_site2343] — lower, 9.19
- TTTGTACCGGCATTTTTTTTTTCTTTTTTTTTCCAA [XGTACX_negctrl_site323] — lower, 9.51
- TATTAAAAATGTTAAGTGCAAAAATAAAAATTGTGG [GTGCAC_site9854] — lower, 9.29
- TACATGAATATATAAAGAAAAAAAAAAAAACACACA [XGTACX_negctrl_site350] — higher, 9.71
- TATAAATTATATATTTGTACGTATATCACATATATA [XGTACX_site7053] — lower, 9.16
- TTTATTGAATAAAATGCACACGCATGCGTTATTTAT [CACACA_site9154] — lower, 9.18
- TATATGTTATATTTAACACACATATAAGGTACATAT [CACACA_site612] — lower, 9.47
- TTCTCATAATTAAATAGTACATATTTTAATAATCAC [XGTACX_site6116] — lower, 8.98
- TTTTATAAACAGAGGGGTACGGGAAAAAAAAAAAAA [XGTACX_site1480] — lower, 9.29
- TGTTAAAGAGAAAGTACTACACATATTATGTGTTTT [XGTACX_site1435] — lower, 9.24
- TTAAAAAAAATTATTTGTACTTAAAAATTTTATATT [XGTACX_site8751] — lower, 8.83
- AGAAAAAAAAAACACACACACACACCGTCAATATAA [CACACA_site7895] — higher, 10.1
- TTTTTAAACCATGTTGTGCACATTTTTTTTGGATTT — lower, 9.38
- ATATATTGGAGCACAACACACACAAGTATATATATG [CACACA_site8435] — higher, 9.93
- AAAAAAAAAAAAAAAACATGCACAAATTATAAGTGA [TGCATGCA_site378] — lower, 9.35
- ACTACATAATACTATTCACACATTTTTTTTTTTTTT [CACACA_site5794] — higher, 9.58
- AAAAAAAAAAAAAACACACAGAACAATATATAAATA [CACACA_site982] — higher, 9.79
- AAAAAAAAATACAAAATAGCAATAAATACACAAACG [GTGCAC_negctrl_site707] — higher, 10.1
- TTCCTTTTTTTTTATTGTACAAAAATATCAAAAAGG [XGTACX_site8505] — lower, 8.81
- ATTTTTTTTTTTTTTTTGGGGGGGTATACTTTTAAA [CACACA_negctrl_site1020] — higher, 10.8
- ATAGAATAAATTTTGTCATTTATTCCTTATATATAA [GTGCAC_negctrl_site227] — lower, 8.98
- TAAAAATAGGAATACGCACACGATGATTAATTTATA [CACACA_site1835] — lower, 9.27
- AATTATATAACAAATTGTACGAATGAAAATATTATT [XGTACX_site4237] — lower, 9.4
- TATAATGAGGATGATAGTACGTATTAGTATAAAAAA [XGTACX_site6623] — lower, 9.34
- TTTTTAATTTTATATACACACATAAAATATATGAAG [CACACA_site3145] — lower, 9.18
- TGTTATTATAACATTTTTTTCAAAATAGCTTTAGAA [CACACA_negctrl_site266] — lower, 8.59
- AATTTATAAGAATAAAGTACTAAAGATACAACTTTA [XGTACX_site7153] — lower, 9.1
- ATAATACCCAAGCACACACACACACCGATATATATA [CACACA_site8344] — higher, 10.4
- ATTAAAGGAAGCAAAACATGCAACAGCAATATTGCA [TGCATGCA_site452] — lower, 9.14
- ATATGGAATAATACGCGTACACACATATATATATTA [XGTACX_site307] — higher, 9.62
- TTTATATCATTACAAGTGCATATCATCATAAATTCT [GTGCAC_site9878] — lower, 9.05
- TCTTGATTATATAGTACTACACATTATAAAAAAATT [XGTACX_site2465] — lower, 9.06
- TATATATAAATATATGTGCACTTTTTATATTTATAT — lower, 9.22
- AATTTTTTTTTAATCATGCACACTGTTAAAAGAATA [CACACA_site1240] — lower, 9.06
- AAAAAATAGAATATAAAAATAAAGGAATTAAATTAA [XGTACX_negctrl_site420] — lower, 9.19
- TTTTAAAAATTAAGTGCATGTCCTTATAAAAAAAAA [TGCATGCA_site845] — lower, 8.81
- TTCATATATTTAGGACGTACTTTTATATTACTATAT [XGTACX_site6456] — lower, 9.38
- AATGATCATAAATACACACACACAAAAAAAAAAAAA [CACACA_site6072] — higher, 9.94
- TATTAAAAAAATGTATGTACATATATAAATTTTTTT [XGTACX_site1094] — lower, 8.98
- TTTCTCCCATTTTTTAGTACACAAAATATATATGTA [XGTACX_site7218] — lower, 9.31
- GATGGATTTATTTAAAGTACATATTTAAAAAACTGT [XGTACX_site7567] — lower, 9.08

From the supplement of paper PMC11417369
